The supplement of paper PMC10369915
This is one part of the list. Cut-off read from the data, not from the text of the source: active = 3.2 or more and inactive = the rest. Most of these values are background signal.

B1: RCOR3_Y46_K42R (peptide)
chain: ARLDEYIAIAK
B2: RET_Y826_Y826S (peptide)
chain: KVGPGSLGSGG
B3: REV3L_Y1156_Y1156C (peptide)
chain: KGPNVCKKTVN
B4: RCN1_Y115 (peptide)
chain: RVQKRYIFDNV
B5: RBM4_Y355_YF (peptide)
chain: FEREQYADRAR
B6: RET_Y809_YF (peptide)
chain: VEFAKYGSLRG
B7: RET_Y928 (peptide)
chain: LFDHIYTTQSD
B8: RET_Y752 (peptide)
chain: KGRAGYTTVAV
B9: RET_Y905_YF (peptide)
chain: FEEDSYVKRSQ
B10: RET_Y900_R897Q (peptide)
chain: LSQDVYEEDSY
B11: RBM4_Y355_A359T (peptide)
chain: YEREQYADRTR
B12: REPS1_Y116_A113E (peptide)
chain: RHEASYSSDSE
B13: RET_Y905_K907E (peptide)
chain: YEEDSYVERSQ
B14: RET_Y905_K907E_YF (peptide)
chain: FEEDSYVERSQ
B15: RET_Y687_G691S (peptide)
chain: AFPVSYSSSSA
B16: RET_Y806_V804L_YF (peptide)
chain: LLILEYAKFGS
B17: RBM47_Y541 (peptide)
chain: IYGASYVPFAA
B18: RET_Y905_K907T_YF (peptide)
chain: FEEDSYVTRSQ
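Note: displayed peptides selected on beads carrying the immobilized SH2 domain, with library peptides lacking any tyrosine serving as negative controls.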

What follows are binders tested against SHP2 C-SH2 domain E139D (assay: enrichment score (SH2-bound / input frequency) (ratio); bacterial display of known human phosphotyrosine sites (pTyr-Var adds point mutants) read by sequencing; higher = stronger binding; tyrosines were phosphorylated by kinases first). Conditions: peptide library: pTyr-Var.
With B1 the enrichment score was inactive: 1.07.
For B2, the enrichment score was inactive: 0.713.
In the case of B3, the enrichment score is reported as inactive: 1.23.
With B4 the enrichment score was inactive: 0.612.
In the case of B5, the enrichment score is reported as inactive: 0.686.
In the case of B6, the enrichment score is reported as inactive: 0.81.
B7 was tested, and the enrichment score was inactive: 1.32.
B8 was tested, and the enrichment score was inactive: 1.32.
With B9 the enrichment score was inactive: 0.646.
B10 was tested, and the enrichment score was inactive: 0.568.
B11 was tested, and the enrichment score was inactive: 0.432.
In the case of B12, the enrichment score is reported as inactive: 0.37.
B13 was tested, and the enrichment score was inactive: 0.576.
With B14 the enrichment score was inactive: 0.716.
In the case of B15, the enrichment score is reported as inactive: 0.979.
B16 was tested, and the enrichment score was active: 3.52.
B17 was tested, and the enrichment score was inactive: 0.858.
For B18, the enrichment score was inactive: 0.822.

The binders below were run against SHP2 C-SH2 domain wild-type in the same assay as above. Conditions: peptide library: pTyr-Var.
With B1 the enrichment score was inactive: 0.876.
With B2 the enrichment score was inactive: 0.653.
For B3, the enrichment score was inactive: 1.2.
B4 was tested, and the enrichment score was inactive: 0.53.
For B5, the enrichment score was inactive: 0.64.
B6 was tested, and the enrichment score was inactive: 0.968.
With B7 the enrichment score was inactive: 0.913.
For B8, the enrichment score was inactive: 1.21.
B9 was tested, and the enrichment score was inactive: 0.468.
For B10, the enrichment score was inactive: 0.688.
B11 was tested, and the enrichment score was inactive: 0.393.
B12 was tested, and the enrichment score was inactive: 0.598.
B13 was tested, and the enrichment score was inactive: 0.948.
B14 was tested, and the enrichment score was inactive: 0.514.
In the case of B15, the enrichment score is reported as inactive: 0.868.
With B16 the enrichment score was inactive: 2.32.
For B17, the enrichment score was inactive: 0.973.
For B18, the enrichment score was inactive: 0.569.

What follows are binders tested against SHP2 N-SH2 domain L43F in the same assay as above. Conditions: peptide library: pTyr-Var.
For B1, the enrichment score was inactive: 0.77.
In the case of B2, the enrichment score is reported as inactive: 0.615.
For B3, the enrichment score was inactive: 1.22.
For B4, the enrichment score was inactive: 0.703.
B5 was tested, and the enrichment score was inactive: 0.54.
With B6 the enrichment score was inactive: 0.64.
For B7, the enrichment score was inactive: 1.61.
With B8 the enrichment score was inactive: 1.18.
In the case of B9, the enrichment score is reported as inactive: 0.616.
In the case of B10, the enrichment score is reported as inactive: 0.545.
B11 was tested, and the enrichment score was inactive: 0.443.
B12 was tested, and the enrichment score was inactive: 0.466.
In the case of B13, the enrichment score is reported as inactive: 0.51.
B14 was tested, and the enrichment score was inactive: 0.531.
B15 was tested, and the enrichment score was inactive: 0.814.
For B16, the enrichment score was inactive: 2.99.
In the case of B17, the enrichment score is reported as inactive: 1.09.
With B18 the enrichment score was inactive: 0.655.

What follows are binders tested against SHP2 N-SH2 domain T42A in the same assay as above. Conditions: peptide library: pTyr-Var.
With B1 the enrichment score was inactive: 0.827.
For B2, the enrichment score was inactive: 0.64.
With B3 the enrichment score was inactive: 1.15.
For B4, the enrichment score was inactive: 0.747.
In the case of B5, the enrichment score is reported as inactive: 0.448.
In the case of B6, the enrichment score is reported as inactive: 0.657.
With B7 the enrichment score was inactive: 1.11.
With B8 the enrichment score was inactive: 1.61.
For B9, the enrichment score was inactive: 0.499.
B10 was tested, and the enrichment score was inactive: 0.514.
B11 was tested, and the enrichment score was inactive: 0.254.
For B12, the enrichment score was inactive: 0.505.
B13 was tested, and the enrichment score was inactive: 0.612.
In the case of B14, the enrichment score is reported as inactive: 0.543.
With B15 the enrichment score was inactive: 0.805.
With B16 the enrichment score was inactive: 2.7.
B17 was tested, and the enrichment score was inactive: 0.733.
With B18 the enrichment score was inactive: 0.652.

What follows are binders tested against SHP2 N-SH2 domain T52S in the same assay as above. Conditions: peptide library: pTyr-Var.
B1 was tested, and the enrichment score was inactive: 0.741.
B2 was tested, and the enrichment score was inactive: 0.517.
In the case of B3, the enrichment score is reported as inactive: 1.18.
For B4, the enrichment score was inactive: 0.631.
For B5, the enrichment score was inactive: 0.615.
For B6, the enrichment score was inactive: 0.774.
B7 was tested, and the enrichment score was inactive: 1.26.
In the case of B8, the enrichment score is reported as inactive: 1.32.
B9 was tested, and the enrichment score was inactive: 0.5.
With B10 the enrichment score was inactive: 0.556.
For B11, the enrichment score was inactive: 0.45.
With B12 the enrichment score was inactive: 0.349.
In the case of B13, the enrichment score is reported as inactive: 0.379.
B14 was tested, and the enrichment score was inactive: 0.612.
B15 was tested, and the enrichment score was inactive: 0.761.
B16 was tested, and the enrichment score was inactive: 3.12.
B17 was tested, and the enrichment score was inactive: 0.922.
In the case of B18, the enrichment score is reported as inactive: 0.647.

These binders were tested against SHP2 N-SH2 domain wild-type in the same assay as above. Conditions: peptide library: pTyr-Var.
In the case of B1, the enrichment score is reported as inactive: 0.935.
With B2 the enrichment score was inactive: 0.762.
With B3 the enrichment score was inactive: 0.959.
With B4 the enrichment score was inactive: 0.419.
For B5, the enrichment score was inactive: 0.721.
B6 was tested, and the enrichment score was inactive: 0.899.
In the case of B7, the enrichment score is reported as inactive: 1.06.
In the case of B8, the enrichment score is reported as inactive: 1.17.
For B9, the enrichment score was inactive: 0.653.
For B10, the enrichment score was inactive: 0.612.
For B11, the enrichment score was inactive: 0.447.
With B12 the enrichment score was inactive: 0.519.
With B13 the enrichment score was inactive: 0.737.
In the case of B14, the enrichment score is reported as inactive: 0.56.
In the case of B15, the enrichment score is reported as inactive: 1.01.
With B16 the enrichment score was active: 3.59.
In the case of B17, the enrichment score is reported as inactive: 1.04.
B18 was tested, and the enrichment score was inactive: 0.581.
